Reference: article PMC4336329 (PLoS ONE, 2015)
About 14,000 (4.5%) of roughly 310,000 compounds showed an effect of 50% or more. The effect is printed as a negative number. Some of the results follow.

Target: human ether-à-go-go-related gene (hERG) potassium channel (human, UniProt Q12809)
Experiment: primary screen, population patch clamp on CHO cells stably expressing hERG
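Also: peak tail current of the secondary pulse compared with the same well before compound.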

human ether-à-go-go-related gene (hERG) potassium channel, sequence (Q12809 whole entry, looked up): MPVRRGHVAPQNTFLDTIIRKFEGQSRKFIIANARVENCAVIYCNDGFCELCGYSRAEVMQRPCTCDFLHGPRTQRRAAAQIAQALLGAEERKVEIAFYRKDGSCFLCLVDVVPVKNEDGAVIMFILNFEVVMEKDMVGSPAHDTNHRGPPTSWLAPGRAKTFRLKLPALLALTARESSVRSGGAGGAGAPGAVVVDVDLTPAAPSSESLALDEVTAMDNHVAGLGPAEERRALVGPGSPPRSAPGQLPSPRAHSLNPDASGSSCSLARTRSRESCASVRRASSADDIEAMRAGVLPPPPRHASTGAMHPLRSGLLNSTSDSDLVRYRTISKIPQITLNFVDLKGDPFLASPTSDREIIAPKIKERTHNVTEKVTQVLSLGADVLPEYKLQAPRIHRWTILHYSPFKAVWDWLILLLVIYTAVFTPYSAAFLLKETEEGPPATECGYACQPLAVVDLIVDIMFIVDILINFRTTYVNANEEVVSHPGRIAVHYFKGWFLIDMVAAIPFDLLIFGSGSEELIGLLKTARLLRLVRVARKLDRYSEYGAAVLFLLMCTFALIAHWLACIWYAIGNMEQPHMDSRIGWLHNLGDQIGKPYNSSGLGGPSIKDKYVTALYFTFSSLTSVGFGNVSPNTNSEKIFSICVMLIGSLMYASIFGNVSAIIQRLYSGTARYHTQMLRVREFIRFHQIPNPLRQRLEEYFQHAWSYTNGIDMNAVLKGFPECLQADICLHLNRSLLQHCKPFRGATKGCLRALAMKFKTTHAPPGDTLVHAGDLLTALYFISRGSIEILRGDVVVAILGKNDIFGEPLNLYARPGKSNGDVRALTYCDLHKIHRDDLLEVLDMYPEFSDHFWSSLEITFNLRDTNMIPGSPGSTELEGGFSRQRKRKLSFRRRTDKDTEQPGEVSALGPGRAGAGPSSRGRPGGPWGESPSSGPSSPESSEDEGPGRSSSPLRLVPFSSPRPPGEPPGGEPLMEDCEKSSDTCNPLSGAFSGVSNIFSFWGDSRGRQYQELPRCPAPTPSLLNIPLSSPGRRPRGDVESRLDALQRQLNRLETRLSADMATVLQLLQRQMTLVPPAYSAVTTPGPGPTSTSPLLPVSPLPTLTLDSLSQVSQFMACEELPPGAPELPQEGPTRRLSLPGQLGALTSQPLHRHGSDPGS

| SMILES | hERG current change (%, negative = inhibition) at 10uM [%] |
| --- | --- |
| NNC(=O)CSc1c(-c2ccccc2)c2cc(Cl)ccc2[nH]c1=O | 3.91 |
| Cc1ccc(CN2CCCN(Cc3ccc(C)cc3)S2(=O)=O)cc1 | 13.2 |
| Cc1ccc(CNC(=O)C(=O)NCC2OCCN2C(=O)c2ccc3c(c2)OCO3)cc1 (stereo not shown) | -7.72 |
| CCN(CC)CCNC(=O)c1cc(-c2cccnc2)nc2ccc(S(=O)(=O)N3CCC(C)CC3)cc12 | -65.1 |
| CN(C)C=Nc1ccc(Cl)c(Cl)c1 | 14.5 |
| CCc1ccc(NC(=O)CSc2nc3ccccc3nc2N2CCCCC2)cc1 | -18.4 |
| COc1ccc(NC(=O)CSc2ncccn2)cc1S(=O)(=O)N1CCCCC1 | -10.7 |
| CCn1cc(C(=O)NCC(C)C)c(=O)c2cc(F)c(N3CCN(C(=O)c4ccco4)CC3)cc21 | -59.9 |
| CC(=O)N1CCc2cc(S(=O)(=O)Nc3cccc(C(F)(F)F)c3)ccc21 | -4.47 |
| COc1cccc(-n2nc(-c3ccnn3-c3ccc(F)cc3)c(=O)n(C)c2=O)c1 | 16 |
| CC(=O)c1cccc(NC(=O)CN(c2ccc(C)cc2)S(=O)(=O)c2cccc3nonc23)c1 | -10.1 |
| CCN(CC)c1ccc(/C=N/N2CCN(Cc3ccccc3)CC2)cc1 | -3.18 |
| CCN(CC(=O)Nc1ccc(OC)cc1)C(=O)c1cc([N+](=O)[O-])ccc1N1CCOCC1 | -15.8 |
| Cc1ccc(NNC(=S)Nc2ccc(C(C)C)cc2)c(C)c1 | -3.56 |
| COc1ccccc1NS(=O)(=O)c1cc(NC(=O)c2ccccc2F)ccc1N1CCOCC1 | 17.9 |
| Cn1c(=O)c2[nH]c(SCc3ccccn3)nc2n(C)c1=S | -7.36 |
| O=C(NCCC(=O)N1CCCCC1)c1ccc(Br)cc1 | 8.63 |
| COc1cc(OC)cc(C(=O)N[C@H](C(=O)OCn2nnc3ccccc3c2=O)C(C)C)c1 | -13.3 |
| O=S(=O)(c1ccc(S(=O)(=O)N2CCCC3(CCCCC3)C2)cc1)N1CCCCC1 | -4.93 |
| CC1(C)CNC(=O)c2sc(NC(=O)CN3CCOCC3)nc2C1 | -6.74 |
| O=C(NC1CC1)C1CCN(C(=O)c2ccc(Cl)cc2)CC1 | 19.8 |
| CC1CCN(C(=O)CCc2nnc3ccc(NCc4ccco4)nn23)CC1 | 0.306 |

| SMILES | hERG current change (%, negative = inhibition) at 10uM [%] |
| --- | --- |
| C=CCOc1ccc(CNn2nnnc2N)cc1 | 18.6 |
| CCN1CCN(c2nc(-c3ccc(F)cc3)cc(=O)[nH]2)CC1 | -3.45 |
| Cc1ccc(S(=O)(=O)c2c(COC(=O)c3ccc(Cl)cc3)c(-c3ccccc3)nn2C)cc1 | -3.18 |
| NC(=O)c1ccccc1NC(=O)CCc1ccccc1 | 6 |
| COc1ccc(N2CC(C(=O)Nc3ccccc3C(=O)NC3CC3)CC2=O)cc1 (stereo not shown) | -38.8 |
| Cc1cc(C)c(OCC(=O)NCC(c2ccco2)N2CCCCC2)c(C)c1 (stereo not shown) | -52.1 |
| N#Cc1ncc(-c2ccc3c(c2)OCCOCCOCCOCCOCCO3)nc1C#N | -75.3 |
| CCc1ccc(O)c(N=Cc2cccc(C)c2O)c1 | 10.5 |
| CCc1ccccc1NC(=O)c1ccc(CN2CCC(Cc3ccccc3)CC2)cc1 | -50.8 |
| Cc1ccccc1C(=O)Nc1cc(-c2cc(C(C)(C)C)oc2C)nn1C | 9.21 |
| [O-]/C(=C(\C(=S)Nc1ccc(SC(F)F)cc1)[n+]1ccccc1)c1ccc(Cl)cc1Cl | -5.18 |
| CCCC(NC(=O)COc1cc2c(c3oc(=O)cc(C)c13)CCC(C)(C)O2)C(=O)O (stereo not shown) | 18.4 |
| COc1cc(/C=N\NC(=O)c2ccc(-c3ccccc3)cc2)cc(OC)c1OC(C)=O | 6.49 |
| Cn1c(NC(=O)c2ccc(F)cc2)c(-c2ccccn2)c(=O)c2ccccc21 | 24.7 |
| CC(CCc1ccccc1)NC(=O)C(Cc1ccccc1)NC(N)=O (stereo not shown) | 20.2 |
| CCc1ccc(OCC(O)CNC(C)(C)C)cc1.Cl (stereo not shown) | -4.05 |
| Cc1ccc(S(=O)(=O)N2CCN(C(=O)c3n[nH]c(=O)c4ccccc34)CC2)c(C)c1 | -30 |
| COc1ccc(OC)c(-c2csc(NC(=O)Cc3cccs3)n2)c1 | 10.5 |
| Cc1ccc(S(=O)(=O)/N=C(/c2ccccc2)N2CCOCC2)cc1 | 14.2 |
| Cl.Clc1ccccc1/C=N/N1CCN(Cc2ccccc2)CC1 | 2.24 |
| CC(=O)Nc1ccc(Oc2cc(C#N)c(C#N)cc2N2CCCCCC2)cc1 | -26.5 |
